The IC50 comes from the fitted curve, where viability falls to half of the control; fits outside the tested doses are given as limits. For AUC the same curve is integrated over the 256-fold range of doses and scaled to a fraction; it is 1 without any effect and falls as sensitivity rises. Any top dose called inferred is not printed in the source and was worked back from the curve model.
Columns and labels:
Experiment in all cases: Viability of human cancer cell lines after 72 h of drug (GDSC screen)
BAY 61-3606 = compound: COc1ccc(-c2cc3nccn3c(Nc3ncccc3C(N)=O)n2)cc1OC [BAY 61-3606]; settings: top dose 8 µM; top dose inferred
Protocol: (§1)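 Human cancer cell lines in 384-well plates, medium with 10% serum, drug for 72 h over a 256-fold dose range (nine 2-fold or five 4-fold steps up to the top dose). Adherent lines were fixed and stained with the nucleic acid dye Syto60, suspension lines read with resazurin; signal relative to control wells, capped at 0 and 100%. One two-parameter sigmoid per drug and line, fitted in a mixed model over all curves with the slope shared within a line.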

KIN001-266 = compound: CCN1CCC(n2cc(CNc3cc(Cl)c4ncc(C#N)c(Nc5ccc(F)c(Cl)c5)c4c3)nn2)CC1 [KIN001-266]; settings: top dose 20 µM; top dose inferred
Protocol: as §1

CCT007093 = compound: O=C1/C(=C/c2cccs2)CC/C1=C\c1cccs1 [CCT007093]; settings: top dose 6.6 µM; top dose inferred
Protocol: as §1

QL-XII-47 = compound: C=CC(=O)N1CCc2ccc(-n3c(=O)ccc4cnc5ccc(-c6cnn(C)c6)cc5c43)cc21 [QL-XII-47]; settings: top dose 10.24 µM; top dose inferred
Protocol: as §1

Cell Line | AUC (BAY 61-3606) | IC50 (BAY 61-3606) [µM] | AUC (KIN001-266) | IC50 (KIN001-266) [µM] | AUC (CCT007093) | IC50 (CCT007093) [µM] | AUC (QL-XII-47) | IC50 (QL-XII-47) [µM]
JIMT-1 (breast, adherent) | 0.807 | 4.51 | 0.892 | > 20 | 0.969 | > 6.6 | 0.872 | > 10.2
JJN-3 (haematopoietic neoplasm, suspension) | 0.807 | 3.25 | 0.86 | 12.2 | 0.99 | > 6.6 | 0.464 | 0.52
JM1 (B-cell lymphoma, suspension) | 0.785 | 2.91 | 0.946 | > 20 | 0.975 | > 6.6 | 0.441 | 0.454
JSC-1 (B-cell lymphoma, suspension) | 0.744 | 2.48 | 0.84 | 13.5 | 0.968 | > 6.6 | 0.418 | 0.382
JURL-MK1 (chronic myeloid leukaemia, suspension) | 0.85 | 6.04 | 0.824 | 11.8 | 0.872 | 6.24 | 0.766 | 3.76
JVM-2 (lymphoid neoplasm, suspension) | 0.932 | > 8 | 0.859 | > 20 | 0.98 | > 6.6 | 0.847 | > 10.2
JVM-3 (lymphoid neoplasm, suspension) | 0.962 | > 8 | 0.852 | 15.9 | 0.982 | > 6.6 | 0.874 | 10.2
JiyoyeP-2003 (Burkitt lymphoma, suspension) | 0.693 | 1.6 | 0.846 | 12 | 0.974 | > 6.6 | 0.675 | 1.84
K2 (melanoma, adherent) | 0.9 | > 8 | 0.96 | > 20 | 0.982 | > 6.6 | 0.926 | > 10.2
K5 (thyroid, adherent) | 0.818 | 4.26 | 0.854 | 14.7 | 0.978 | > 6.6 | 0.524 | 0.742
KALS-1 (glioma, adherent) | 0.879 | > 8 | 0.855 | > 20 | 0.965 | > 6.6 | 0.699 | 2.89
KARPAS-45 (lymphoblastic leukaemia, suspension) | 0.733 | 2.01 | 0.757 | 5.87 | 0.978 | > 6.6 | 0.559 | 0.9
KARPAS-299 (anaplastic large cell lymphoma, suspension) | 0.96 | > 8 | 0.876 | 14.2 | 0.991 | > 6.6 | 0.596 | 1.12
KARPAS-422 (B-cell lymphoma, suspension) | 0.763 | 2.85 | 0.875 | 19.3 | 0.985 | > 6.6 | 0.898 | > 10.2
KARPAS-620 (haematopoietic neoplasm, suspension) | 0.759 | 2.43 | 0.869 | 14.1 | 0.991 | > 6.6 | 0.539 | 0.804
KCL-22 (chronic myeloid leukaemia, suspension) | 0.77 | 2.57 | 0.867 | 13.4 | 0.985 | > 6.6 | 0.514 | 0.694
KE-37 (lymphoblastic leukaemia, suspension) | 0.601 | 0.884 | 0.875 | 12.1 | 0.973 | > 6.6 | 0.409 | 0.384
KELLY (neuroblastoma, adherent) | 0.87 | 6.32 | 0.746 | 5.86 | 0.982 | > 6.6 | 0.989 | > 10.2
KG-1 (acute myeloid leukaemia, suspension) | 0.792 | 3.21 | 0.874 | 15.9 | 0.99 | > 6.6 | 0.833 | 5.63
KGN (ovary, adherent) | 0.684 | 1.84 | 0.865 | > 20 | 0.95 | > 6.6 | 0.492 | 0.607

Cell Line | AUC (BAY 61-3606) | IC50 (BAY 61-3606) [µM] | AUC (KIN001-266) | IC50 (KIN001-266) [µM] | AUC (CCT007093) | IC50 (CCT007093) [µM] | AUC (QL-XII-47) | IC50 (QL-XII-47) [µM]
KINGS-1 (glioma, adherent) | 0.966 | > 8 | 0.86 | > 20 | 0.931 | > 6.6 | 0.869 | > 10.2
KLE (endometrium, adherent) | 0.917 | > 8 | 0.879 | > 20 | 0.956 | > 6.6 | 0.702 | 3.3
KM12 (large intestine, adherent) | 0.737 | 2.54 | 0.858 | 18.8 | 0.961 | > 6.6 | 0.761 | 3.93
KM-H2 (Hodgkin lymphoma, suspension) | 0.94 | > 8 | 0.908 | > 20 | 0.974 | > 6.6 | 0.853 | 6.16
KMH-2 (thyroid, adherent) | 0.53 | 0.599 | 0.972 | > 20 | 0.99 | > 6.6 | 0.633 | 1.43
KMOE-2 (acute myeloid leukaemia, suspension) | 0.788 | 3.11 | 0.872 | 15.5 | 0.988 | > 6.6 | 0.706 | 2.26
KMRC-1 (kidney, adherent) | 0.958 | > 8 | 0.814 | 11.7 | 0.971 | > 6.6 | 0.981 | > 10.2
KMS-12-BM (myeloma, suspension) | 0.913 | > 8 | 0.9 | 17.7 | 0.981 | > 6.6 | 0.85 | 5.79
KNS-42 (glioma, adherent) | 0.875 | > 8 | 0.847 | 19.2 | 0.967 | > 6.6 | 0.899 | > 10.2
KNS-81-FD (glioma, adherent) | 0.919 | > 8 | 0.855 | > 20 | 0.963 | > 6.6 | 0.933 | > 10.2
KON (head and neck, adherent) | 0.743 | 2.43 | 0.968 | > 20 | 0.986 | > 6.6 | 0.982 | > 10.2
KOPN-8 (B-cell leukaemia, suspension) | 0.647 | 1.2 | 0.802 | 8.25 | 0.99 | > 6.6 | 0.573 | 0.983
KP-2 (pancreas, adherent) | 0.814 | 4.79 | 0.887 | > 20 | 0.986 | > 6.6 | 0.59 | 1.15
KP-3 (pancreas, adherent) | 0.86 | > 8 | 0.933 | > 20 | 0.984 | > 6.6 | 0.68 | 2.26
KP-4 (pancreas, adherent) | 0.946 | > 8 | 0.985 | > 20 | 0.977 | > 6.6 | 0.414 | 0.375
KS-1 (glioma, adherent) | 0.738 | 2.88 | 0.826 | 16.3 | 0.978 | > 6.6 | 0.374 | 0.264
KU812 (chronic myeloid leukaemia, suspension) | 0.763 | 2.65 | 0.861 | 14.6 | 0.97 | > 6.6 | 0.421 | 0.398
KU-19-19 (bladder, adherent) | 0.985 | > 8 | 0.987 | > 20 | 0.981 | > 6.6 | 0.957 | > 10.2
KURAMOCHI (ovary, adherent) | 0.853 | 7.83 | 0.923 | > 20 | 0.984 | > 6.6 | 0.795 | 5.61
KY821 (leukaemia, suspension) | 0.972 | > 8 | 0.888 | 17.4 | 0.98 | > 6.6 | 0.851 | 6.33

Cell Line | AUC (BAY 61-3606) | IC50 (BAY 61-3606) [µM] | AUC (KIN001-266) | IC50 (KIN001-266) [µM] | AUC (CCT007093) | IC50 (CCT007093) [µM] | AUC (QL-XII-47) | IC50 (QL-XII-47) [µM]
KYM-1 (rhabdomyosarcoma, adherent) | 0.657 | 1.27 | 0.899 | 18.9 | 0.984 | > 6.6 | 0.991 | > 10.2
KYSE-50 (oesophagus, adherent) | 0.806 | 3.65 | 0.894 | > 20 | 0.96 | > 6.6 | 0.461 | 0.506
KYSE-70 (oesophagus, adherent) | 0.863 | > 8 | 0.934 | > 20 | 0.968 | > 6.6 | 0.844 | 8.36
KYSE-140 (oesophagus, adherent) | 0.786 | 3.95 | 0.813 | 12.6 | 0.984 | > 6.6 | 0.581 | 1.1
KYSE-150 (oesophagus, adherent) | 0.846 | 5.46 | 0.917 | > 20 | 0.978 | > 6.6 | 0.829 | 6.03
KYSE-180 (oesophagus, adherent) | 0.823 | 4.43 | 0.875 | 18.2 | 0.988 | > 6.6 | 0.718 | 2.56
KYSE-220 (oesophagus, adherent) | 0.918 | > 8 | 0.863 | 18.9 | 0.946 | > 6.6 | 0.779 | 4.42
KYSE-270 (oesophagus, adherent) | 0.686 | 1.51 | 0.842 | 11.1 | 0.991 | > 6.6 | 0.991 | > 10.2
KYSE-410 (oesophagus, adherent) | 0.837 | 5.85 | 0.975 | > 20 | 0.985 | > 6.6 | 0.536 | 0.808
KYSE-450 (oesophagus, adherent) | 0.73 | 2.16 | 0.859 | 15.1 | 0.983 | > 6.6 | 0.432 | 0.421
KYSE-510 (oesophagus, adherent) | 0.771 | 2.57 | 0.957 | > 20 | 0.989 | > 6.6 | 0.924 | > 10.2
KYSE-520 (oesophagus, adherent) | 0.957 | > 8 | 0.931 | > 20 | 0.947 | > 6.6 | 0.599 | 1.32
L-363 (myeloma, suspension) | 0.785 | – | 0.872 | 14.7 | 0.99 | > 6.6 | 0.534 | 0.781
L-428 (Hodgkin lymphoma, suspension) | 0.866 | 5.74 | 0.94 | > 20 | 0.992 | > 6.6 | 0.909 | > 10.2
L-540 (Hodgkin lymphoma, suspension) | 0.922 | > 8 | 0.867 | 14.8 | 0.99 | > 6.6 | 0.839 | 5.89
L-1236 (Hodgkin lymphoma, suspension) | 0.98 | > 8 | 0.889 | 16.6 | 0.99 | > 6.6 | 0.973 | > 10.2
LAMA-84 (chronic myeloid leukaemia, suspension) | 0.91 | > 8 | 0.819 | 11.6 | 0.969 | > 6.6 | 0.555 | 0.905
LAN-6 (neuroblastoma, adherent) | 0.868 | > 8 | 0.892 | > 20 | 0.973 | > 6.6 | 0.39 | 0.3
LB373-MEL-D (melanoma, adherent) | 0.925 | > 8 | 0.871 | 18.1 | 0.99 | > 6.6 | 0.975 | > 10.2
LB771-HNC (head and neck, adherent) | 0.864 | > 8 | 0.884 | > 20 | 0.962 | > 6.6 | 0.747 | 4
